From PubChem BioAssay AID1347071 (National Center for Advancing Translational Sciences (NCATS), 2019)
Screen size: about 410,000 compounds; about 260 (0.063%) were called active. Inconclusive means that the source gave no clear call. Such entries were picked first, then a sample of the others. The call rests on the fitted dose curve; in most records, active means well fitted activation curve with a large enough effect; inconclusive means small, poorly fitted or top-dose-only effect; inactive means no such curve, though single readings can be large or run the other way. Potencies of inconclusive entries are left out as doubtful fits.

Assay: qHTS for compounds that reverse cellular toxicity of Amyloid beta (A-beta) peptide in yeast: Primary Screen; further: nearly all actives have a fitted effect of over 55% in size
Conditions: yeast expressing A-beta42, growth rescue, OD600, 48 h; growth rescue: at 46.1 µM (top of the series), 0% DMSO, 100% iron-clioquinol control
How it was run: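 Yeast growth medium received pinned compounds, then yeast cells expressing toxic A-beta were added; plates incubated at 30 C for 48 hr. Growth read as absorbance at 600 nm, normalized to DMSO and equimolar FeCl3 plus clioquinol controls.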
Potency means the concentration at half of the fitted maximal effect; tags describe the fitted curve by direction and shape.

SMILES | Potency | growth rescue
O=C(Nc1cccc(Br)c1)c1ccccc1-c1ccccc1 | inconclusive [activator, full curve, poor fit] | –
COCCNC(=O)C1(C)CCCN(Cc2ccc(-c3ccccc3)o2)C1 (centres undefined) | – | inconclusive: -89.2% [activator]
COc1ccccc1NC(=O)c1ccc(NC(=O)COC(=O)CCC2CCCC2)cc1 | inconclusive [activator, single point] | –
Cc1ccc(C)c(S(=O)(=O)Nc2nc(C)c(C(=O)Nc3ccccc3)s2)c1 | inconclusive [activator, full curve] | –
O=S(=O)(Nc1nc2ccccc2nc1Cl)c1ccc(F)cc1 | inconclusive [activator, partial curve, poor fit] | –
COc1ccc2c(CN(C)c3ccccc3)cc(=O)oc2c1 | – | inactive: -16.3%
c1ccc(-c2cc3nc(NCc4ccc5c(c4)OCO5)ccn3n2)cc1 | inconclusive [activator, full curve] | –
COc1ccc(S(=O)(=O)N2CCOCC2)cc1NC(=O)Cc1ccc(Cl)c(Cl)c1 | – | inconclusive: 41.1% [activator]
O=C(NCc1ccc2c(c1)OCO2)c1ccc2c(c1)OCCO2 | inconclusive [activator, single point] | –
COc1ccc(-c2cn3cc(C(F)(F)F)cc(Cl)c3n2)cc1 | inconclusive [activator, partial curve, poor fit] | –
COc1ccc(C2CC(=O)c3cc(-c4nc(-c5cccc([N+](=O)[O-])c5)cs4)c(=O)n(-c4ccc(C)c(C)c4)c3C2)cc1 (centres undefined) | – | inactive: -12%
COc1cc(C(=O)Nc2ccc3c(c2)OCCO3)ccc1OC(C)C | inconclusive [activator, single point] | –
CCOC(=O)c1ccc(N2CCN(c3ccccc3F)CC2)c(NC(=O)Nc2ccc(Cl)c(Cl)c2)c1 | – | inactive: 12%
NC(=S)NN=C1CSSC1 | inconclusive [activator, partial curve, poor fit] | –
Oc1c(N=Nc2ccc(F)cc2)ccc2ccccc12 | – | inactive: -21.8%
O=C(NNC(=S)Nc1cccc(C(F)(F)F)c1)c1ccccc1Cl | inconclusive [activator, full curve] | –
CCOc1cccc(=O)c2c(C)n(C)c(C)c12 | – | inactive: -9.78%
Cc1ccc(Nc2nnc(SCC(=O)c3ccc(Br)s3)s2)c(C)c1 | inconclusive [activator, partial curve, poor fit] | –
CCCC(=O)Nc1nc2ccc(OC)cc2s1 | inconclusive [activator, single point] | –
